# Screen size: about 310,000 compounds; about 11,000 (3.5%) were called active. Inconclusive means that the source gave no clear call. Such entries were picked first, then a sample of the others. Calls come from the whole dose curve; as a rule, active = well fitted inhibition curve with a large enough effect; inconclusive = small, poorly fitted or top-dose-only effect, or effect the other way; inactive = flat fitted curve, though single readings scatter. No potency is given beside an inconclusive call; the fits are too rough.
# Assay: VP16 counterscreen qHTS for inhibitors of ROR gamma transcriptional activity;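 note: Gal4-VP16 expression switched on by copper sulfate through the metallothionein promoter; nearly all actives have a fitted effect of over 50% in size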
# Conditions: Drosophila S2 Gal4-VP16 UAS-luciferase, luminescence, 20 h; activity, negative = inhibition: at 53.6 µM (top of the series)
# % is set by controls: 0 for no effect and ±100 for the full control effect; potency is the fitted concentration of half-maximal effect; tags give direction and shape of the fitted curve.
SMILES,Potency,"activity, negative = inhibition"
COc1ccc2c(c1)C(NC(=O)C(F)(F)F)CC2=O (stereo unspecified),"inconclusive [activator, single point]",
COc1ccc2o/c(=N\O)c(C(=O)Nc3ccccc3OC)cc2c1,"inconclusive [inhibitor, single point]",
CCc1nnc(NC(=O)CSc2ncc(-c3ccccc3)[nH]2)s1,"inconclusive [inhibitor, single point]",
COC(=O)c1ccc(C2C(C(=O)c3cc4ccccc4o3)=C(O)C(=O)N2c2cc(C)on2)cc1 (stereo unspecified),"inconclusive [inhibitor, single point]",
O=C(NC(=S)Nc1cccc2cnccc12)c1ccccc1,"inconclusive [inhibitor, single point]",
Cc1cccc(NC(=O)COC(=O)c2cc3ccccc3oc2=O)c1,inactive,
CS(=O)(=O)N(Cc1ccc(Cl)cc1)c1ccc(C(=O)N2CCN(c3ccccc3)CC2)cc1,"inconclusive [inhibitor, single point]",
Cc1ccc(/C=N/NC(=O)c2cc(C)oc2C)cc1,"inconclusive [inhibitor, single point]",
CCOC(=O)c1ccc(N=c2sc(C(=O)OC)cc(=O)n2-c2ccc(C(=O)OCC)cc2)cc1,"inconclusive [inhibitor, single point]",
CCN(CC(=O)Nc1c(F)cccc1F)C(=O)c1ccc(=O)[nH]c1,"inconclusive [inhibitor, single point]",
COc1cc(C(=O)OCC(=O)NCc2ccc(F)cc2)cc(NC(=O)c2cccs2)c1OC,"inconclusive [inhibitor, single point]",
CC(C)(C)C1CCC(=NNC(=O)C(=O)NCc2cccnc2)CC1 (stereo unspecified),inactive,
Cc1c(C2CC(=O)N(c3ccccc3)C2=O)[nH]n(-c2ccccc2)c1=O (stereo unspecified),inactive,
CN(C)S(=O)(=O)c1cc(NC(=O)COC(=O)Cc2cccc3ccccc23)ccc1Cl,"inconclusive [inhibitor, partial curve]",
CCOc1ccc(Oc2cc(NC(=O)c3ccco3)cc([N+](=O)[O-])c2)cc1,"inconclusive [inhibitor, single point]",
CCCN(CCC)S(=O)(=O)c1ccc(C(=O)Nc2nnc(CSC)o2)cc1,active: 1.26 µM,
CC(=O)Oc1ccc(/C=C2\C=C(c3ccc(C)cc3)OC2=O)cc1,"inconclusive [inhibitor, full curve]",
CCC(C)NC(=O)CSc1nnc(-c2cc(OC)c(OC)c(OC)c2)c(-c2cc(OC)c(OC)c(OC)c2)n1 (stereo unspecified),"inconclusive [activator, single point]",
COc1cc(CO)ccc1OCC(=O)Nc1ccc(Br)cc1,"inconclusive [inhibitor, partial curve]",
CCOC(=O)c1ccc(NC(=O)Cn2nnc3ccccc32)cc1,"inconclusive [inhibitor, partial curve]",
CN1C/C(=C/c2ccc(B(O)O)cc2)C(=O)/C(=C/c2ccc(B(O)O)cc2)C1,active: 4.47 µM,
CC(C)CC(=O)N/C(N)=N/c1nc2ccccc2s1,"inconclusive [inhibitor, full curve, poor fit]",
Cc1ccc(-n2[nH]c(C)c(/C=N/NC(=O)c3ccc([N+](=O)[O-])cc3)c2=O)c(C)c1,active: 5.01 µM,
CCOC(=O)N1CCC(c2cc(=O)n3[nH]c(C)c(-c4ccc(F)cc4)c3n2)CC1,active: 12.6 µM,

SMILES,Potency,"activity, negative = inhibition"
O=C(NN=C1CCCC1)c1n[nH]c2c1CCC2,inactive,
COc1cc(C(=O)NCc2cc(C)nc3ccccc23)cc(OC)c1OC,inactive,
O=C(NC(=S)N1CCc2ccccc21)c1ccccc1Br,active: 0.891 µM,
CCOC(=O)Nc1ccc2nc(Sc3ccc(Cl)cc3)sc2c1,"inconclusive [inhibitor, single point]",
O=C(CSc1nccn1-c1ncc(C(F)(F)F)cc1Cl)c1ccc(Cl)cc1,"inconclusive [inhibitor, single point]",
Cc1nn(-c2cccc(C(F)(F)F)c2)c(Cl)c1/C=N/Nc1cccc(C(=O)O)c1,"inconclusive [inhibitor, partial curve]",
COc1cccc(Oc2cc(NN3CCCCC3)c([N+](=O)[O-])cc2[N+](=O)[O-])c1OC,inactive,
Cc1nnc(-c2cnn(-c3ccccc3)c2N)n1Cc1cccc(C(F)(F)F)c1,"inconclusive [inhibitor, single point]",
CCn1nc(NC(=O)c2ccccn2)c2cc3cc(C)ccc3nc21,active: 7.08 µM,
CCNC(=S)N/N=C/c1ccc(-c2ccccc2)o1,active: 1.41 µM,
Cc1nc(N2CCOCC2)nc(N2CCCCC2C)c1[N+](=O)[O-] (stereo unspecified),inactive,
CCN(CC)Cc1c(NC(=O)c2ccccc2)sc(C)c1C,"inconclusive [activator, single point]",
Fc1ccc(CNC(=S)NCc2ccccc2)cc1,"inconclusive [inhibitor, single point]",
N#C/C(=C(/O)CN1CCCCC1)c1nc(-c2ccc(Cl)cc2)cs1,"inconclusive [inhibitor, single point]",
CN(Cc1ccccc1)c1ccc(N2C(=O)CCC2=O)cc1[N+](=O)[O-],"inconclusive [inhibitor, single point]",
Cc1ccc(C(NC(=O)N2CCOCC2)=C(Cl)Cl)cc1F,active: 2.24 µM,
C=C(C)C(=O)Nc1cccc(C2=NOC3(C2)C[C@@H](C(N)=O)N(C(=O)/C=C/C=C/C)C3)c1 (stereo partly specified),inactive,
CC(=O)OC[C@H]1O[C@@H](O/N=C(\C)CCN2CCc3nc(-c4ccccc4)c(-c4ccccc4)cc3C2)[C@H](OC(C)=O)[C@@H](OC(C)=O)[C@H]1OC(C)=O,,inactive: -7.71% [at 10 µM]
Cc1[nH]n(C(N)=S)c(=O)c1N=Nc1cccc(Cl)c1,active: 1.58 µM,
COc1cccc(CCc2ccccc2OCC(CN(C)C)OC(=O)CCC(=O)O)c1 (stereo unspecified),inactive,
COc1ccc(/C=N/N2C(=O)C3C4C=CC(C4)C3C2=O)cc1[N+](=O)[O-] (stereo unspecified),"inconclusive [activator, single point]",
Cc1ccc(-c2csc(NC(=S)NC(=O)/C=C/c3ccco3)n2)cc1,"inconclusive [inhibitor, single point]",
CCCC(C)c1nnc(NC(=O)c2cc(C(=O)OC)cc([N+](=O)[O-])c2)s1 (stereo unspecified),active: 15.8 µM,
C[C@@H]1CCC2[C@](C)(CO)[C@@H](O)CC[C@]2(C)[C@@]12C[C@](CO)(CC(=O)O)CO2 (stereo partly specified),inactive,

SMILES,Potency,"activity, negative = inhibition"
O=C(Nc1ccccc1)N1CCn2c1nc1ccccc12,inactive,
CCN(CC)c1ccc(/C=N/NC(=S)NCc2ccco2)cc1,active: 3.16 µM,
Cc1ccccc1NC(=O)c1c(-c2ccccc2)noc1C,inactive,
COc1ccc(NC(=O)c2nc[nH]c2C(=O)N[C@H](C)c2ccccc2)cc1,active: 7.94 µM,
CNc1ccc(Br)cc(C(=O)/C=C/c2cccc(OC)c2OC)c1=O,"inconclusive [inhibitor, single point]",
COc1ccc(-c2cn3ccc(C)cc3n2)cc1,active: 5.01 µM,
Cc1ccc(NC(=O)Nc2c(C)n(C)n(-c3ccccc3)c2=O)cc1C,inactive,
C[C@@H]1C(=O)O[C@H]2[C@@H](O)[C@@]34[C@H]5CC(C(C)(C)C)[C@]36[C@@H](OC(=O)[C@@H]6O)O[C@@]4(C(=O)O5)[C@@]12O (stereo partly specified),inactive,
CCc1cc2c(cc3c(=O)n(CC(=O)N4CCN(c5ccccn5)CC4)nc(CC)n32)s1,inactive,
Cc1ccc(C)n1CCN1CCN(CC(=O)Nc2cc(C(F)(F)F)ccc2Cl)CC1,"inconclusive [inhibitor, single point]",
CC(=O)c1ccc(NC(=O)c2ccc3c(Cl)c4c(nc3c2)CCCC4)cc1,"inconclusive [activator, single point]",
COc1cc(C2NC(=O)C(C#N)=C(Nc3cccc(C)c3)S2)ccc1O (stereo unspecified),"inconclusive [inhibitor, single point]",
Cc1cccc(N2CCN(C(=O)c3ccccc3NC(=O)C3CCCCC3C(=O)O)CC2)c1 (stereo unspecified),"inconclusive [activator, single point]",
O=C(Nc1cccc(NC(=O)c2ccccc2)n1)c1ccccc1,inactive,
CCn1cc(C(=O)N[C@@H](CCSC)C(=O)NC(C)(C)CO)c(=O)c2cc3c(cc21)OCO3,inactive,
CCOC(=O)CSc1cc(-c2ccccc2)nc2ncnn12,active: 11.2 µM,
Cc1ccc(-c2nnc(NC(=O)c3c(F)cccc3Cl)s2)cc1,"inconclusive [inhibitor, single point]",
Cc1ccc(N2C(=O)C(Cl)=C(N3CCOCC3)C2=O)cc1Cl,"inconclusive [inhibitor, single point]",
COc1ccc(-c2c(C)nn3c(N4CCCCCC4)cc(C)nc23)cc1OC,inactive,
Cc1sc2nc(CN3CCCC3)nc(Cl)c2c1C,"inconclusive [inhibitor, single point]",
COc1ccccc1-c1nnc(NC(=O)CSc2nncn2C)s1,"inconclusive [inhibitor, partial curve]",
CC(C)Oc1ccc(C2CC(=O)N(c3cccc(C(=O)O)c3)C2=O)cc1 (stereo unspecified),"inconclusive [inhibitor, partial curve]",
COc1ccccc1CNC(=O)c1c(N)n(CCCN2CCOCC2)c2nc3ccccc3nc12,"inconclusive [inhibitor, single point]",
